# In paper PMC4336329 (PLoS ONE, 2015):
# Screen size: about 310,000 compounds; about 2,200 (0.71%) showed an effect of 50% or more. Effects have a minus sign here. The list shows a part of the results.
# Molecular target: human ether-à-go-go-related gene (hERG) potassium channel (human, UniProt Q12809)
# Assay: primary screen, population patch clamp on CHO cells stably expressing hERG
# human ether-à-go-go-related gene (hERG) potassium channel, sequence (Q12809 whole entry, looked up): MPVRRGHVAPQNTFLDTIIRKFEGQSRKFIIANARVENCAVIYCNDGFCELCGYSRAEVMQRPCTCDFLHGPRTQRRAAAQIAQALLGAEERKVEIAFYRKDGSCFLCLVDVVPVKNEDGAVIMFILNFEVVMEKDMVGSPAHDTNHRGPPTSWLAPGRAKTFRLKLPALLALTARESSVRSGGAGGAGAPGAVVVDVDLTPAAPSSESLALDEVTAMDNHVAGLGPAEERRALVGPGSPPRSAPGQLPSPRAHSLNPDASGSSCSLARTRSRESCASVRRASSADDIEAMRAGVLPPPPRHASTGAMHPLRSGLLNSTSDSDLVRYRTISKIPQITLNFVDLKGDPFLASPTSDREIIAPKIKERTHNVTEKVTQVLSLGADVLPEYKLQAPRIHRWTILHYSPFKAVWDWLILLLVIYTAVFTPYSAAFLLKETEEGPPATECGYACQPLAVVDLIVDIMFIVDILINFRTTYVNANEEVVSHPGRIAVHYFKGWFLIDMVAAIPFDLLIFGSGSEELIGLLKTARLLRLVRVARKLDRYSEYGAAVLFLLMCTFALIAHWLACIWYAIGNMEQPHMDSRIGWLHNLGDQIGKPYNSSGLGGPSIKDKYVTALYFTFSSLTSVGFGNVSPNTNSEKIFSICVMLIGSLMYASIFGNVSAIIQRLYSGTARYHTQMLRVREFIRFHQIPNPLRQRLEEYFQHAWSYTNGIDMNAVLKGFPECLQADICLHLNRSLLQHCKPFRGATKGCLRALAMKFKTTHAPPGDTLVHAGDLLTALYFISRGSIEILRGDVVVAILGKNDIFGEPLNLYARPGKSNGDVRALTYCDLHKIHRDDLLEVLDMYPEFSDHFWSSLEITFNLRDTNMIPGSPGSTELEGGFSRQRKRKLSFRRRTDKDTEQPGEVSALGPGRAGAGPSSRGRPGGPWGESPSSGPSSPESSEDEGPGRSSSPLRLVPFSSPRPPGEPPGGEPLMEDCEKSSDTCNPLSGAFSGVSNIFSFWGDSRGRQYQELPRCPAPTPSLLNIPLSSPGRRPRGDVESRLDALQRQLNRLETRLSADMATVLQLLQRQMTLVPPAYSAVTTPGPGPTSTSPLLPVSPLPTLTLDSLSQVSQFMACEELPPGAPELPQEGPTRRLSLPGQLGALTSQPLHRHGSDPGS
row,SMILES,"hERG current change (%, negative = inhibition) at 1uM"
1,COc1ccc(C(=O)Oc2cc(C)[nH]c(=O)c2[N+](=O)[O-])c(OC)c1,8.56%
2,Cc1cccc(-c2noc(CNC(=O)COc3ccccc3C)n2)c1,12.2%
3,COc1ccccc1NC(=O)CSc1nnc(C2CCCCC2)n1N,10.3%
4,COC(=O)c1ccccc1NC(=O)CSc1nnc(-c2ccc(OC)cc2)n1C,-5.29%
5,Cc1ccc2nc(SCC(=O)N(C)C3CCS(=O)(=O)C3)[nH]c2c1 (centres unmarked),8.96%
6,O=C(CCCN1C(=O)/C(=C/c2ccccc2)SC1=S)NCCCn1ccnc1,-11%
7,CC(=O)c1c(C)[nH]c(C(=O)NC2CCSc3ccccc32)c1C (centres unmarked),14.5%
8,COc1ccccc1C(C(=O)NCc1ccccc1)N(C(=O)c1csnn1)C1CC1 (centres unmarked),7.78%
9,COc1cc2nc(CN3CC=C(c4ccccc4)CC3)[nH]c(=O)c2cc1OC,8.35%
10,COc1ccccc1C(=O)C1CCCN(C(=O)CCC(=O)c2ccccc2)C1 (centres unmarked),-0.0025%
11,CCOC(=O)Cc1csc(SCC(=O)NC2CCCCC2)n1,11.9%
12,O=C(c1cccc(Cl)c1Cl)N1CCN(c2ccccn2)CC1,17%
13,NC(=O)CC(NC(=O)c1ccc(Br)cc1)c1ccc(NCc2ccc(F)c(F)c2)c([N+](=O)[O-])c1 (centres unmarked),8.1%
14,Cn1c(SCC#N)nnc1-c1cnccn1,4.11%
15,CCN(CC)C(=O)Oc1cc2c(-c3cc4cccc(OC)c4o3)cc(=O)oc2cc1C,16.5%
16,Cc1ccc(SCc2c(C(=O)N/N=C/c3ccoc3)nnn2-c2nonc2N)cc1,13.2%
17,CC(C)C(=O)Nc1ncc(Cc2ccc(Cl)cc2)s1,9.12%
18,O=C(OCCO)c1cc(Cl)c(C(=O)OCCO)cc1Cl,14.9%
19,CCCCC(=O)Nc1cccc(NC(=O)c2ccc(Br)o2)c1,-0.387%
20,CCc1ccc(NC(=O)COC(=O)CCC2CCCC2)cc1,1.79%
21,CC1=C([N+](=O)[O-])C(c2ccccc2)NC(=O)N1 (centres unmarked),18.4%
22,O=C(NC1CCCCC1)c1ccc2[nH]c(=O)c(=O)[nH]c2c1,20.5%

row,SMILES,"hERG current change (%, negative = inhibition) at 1uM"
1,CC(C)C1N=C2c3ccccc3N=C(SCC#N)N2C1=O (centres unmarked),19.2%
2,CCc1ccc(-c2nc(CS(=O)CC(=O)NCc3ccc4c(c3)OCO4)c(C)o2)cc1 (centres unmarked),11.3%
3,O=C(CN(C(=O)CNS(=O)(=O)c1ccccc1)c1ccc(Cl)cc1)NCC1CCCO1 (centres unmarked),17%
4,Cc1ccc(S(=O)(=O)CC(=O)Nc2c(C)n(C)n(-c3ccccc3)c2=O)cc1,10.9%
5,CCOc1ccc(Nc2nnc(SCc3nc4ccccc4c(=O)[nH]3)s2)cc1,3.99%
6,Cc1cc(C)nc(N2CCCC(C(=O)NCc3ccc4c(c3)OCO4)C2)n1 (centres unmarked),6.18%
7,C=CCN(c1ccccc1)S(=O)(=O)c1cccc(C(=O)Nc2ncccc2C)c1,3.66%
8,O=C(c1ccco1)N1CCN(c2ccc(S(=O)(=O)N3CCCC3)cc2)CC1,-8.46%
9,CCN(Cc1nc(-c2cccc(C)c2)no1)C(=O)c1ccco1,7.53%
10,O=C(O)CCc1ccccc1OC(=O)c1ccccc1,10.8%
11,NC(=S)N=Nc1c(O)n(C2OC(=O)c3ccccc32)c2ccccc12 (centres unmarked),6.86%
12,COc1ccc(-c2cc(C(=O)c3c(N)n(C)c(=O)n(C)c3=O)c3ccccc3n2)cc1,6.23%
13,Cc1nc(C)c(Oc2cccc(C(F)(F)F)c2)c(=O)[nH]1,7.38%
14,Cc1ccc(NC(=O)N2CCN(Cc3ccc4c(c3)OCO4)CC2)cc1,9.3%
15,Cc1nc(-c2cccc(NS(C)(=O)=O)c2)cs1,-6.36%
16,COc1cccc(CN2C(=O)CCC2(C)C(=O)NC2CCCCC2)c1 (centres unmarked),13.4%
17,CC(C)=C(NC(=O)c1ccccc1)C(=O)Nc1ccc(C(=O)O)cc1,10.3%
18,Cc1csc(NC(=O)CCCc2cccs2)n1,1.69%
19,CCCC(=O)C1=C(O)C(C(=O)OC)C(C)(C)CC1=Nc1ccc(C)cc1 (centres unmarked),7.7%
20,CCC(SC1=Nc2ccccc2C2=NC(CC(C)C)C(=O)N12)C(=O)Nc1ccc2c(c1)OCO2 (centres unmarked),-5.83%
21,CCc1ccc(N2CC(C(=O)N3CCCC3)CC2=O)cc1 (centres unmarked),0.094%
22,Cc1cccc(COCC(CC(C)C)N2CCN(C(=O)c3ccc(C(F)(F)F)cc3)CCC2=O)c1 (centres unmarked),-3.92%
